In PubChem BioAssay AID485313 (National Center for Advancing Translational Sciences (NCATS), 2010):
The whole screen tested about 320,000 compounds, of which about 7,600 (2.4%) were called active. Inconclusive means that the source gave no clear call. Such entries were picked first, then a sample of the others. The call rests on the fitted dose curve; in most records, active means well fitted activation curve with a large enough effect; inconclusive means small, poorly fitted or top-dose-only effect; inactive means no such curve, though single readings can be large or run the other way. No potency is given beside an inconclusive call; the fits are too rough.

Test: qHTS Assay for NPC1 Promoter Activators; further: nearly all actives have a fitted effect of over 60% in size
Settings: Huh7 NPC1 promoter luciferase reporter, 24 h; series mostly up to 9.22 µM
Description: NIH Chemical Genomics Center [NCGC] NIH Molecular Libraries Probe Production centers Network [MLPCN] MLPCN Grant: MH089375-01A1 Assay Submitter (PI): Yiannis A. Ioannou NCGC Assay Overview: Niemann Pick Type C (NPC) is a rare neurodegenerative lipidosis that is characterized by lipid storage in the endosomal/lysosomal system. Treatment modalities for this devastating disease are currently non-existent due to the severe obstacles associated with accessing the central nervous system with proteins or genes. The majority of mutations causing NPC disease are missense mutations that are distributed throughout the length of the NPC1 protein, with the most prevalent being the I1061T allele. Although NPC1 mutant proteins may be functional, they are typically trapped in the ER due to misfolding. […] We have developed and optimized a cell based luciferase reporter assay in 1536 well format for the identification of up-regulators of the mutant NPC1 promoter.
The NPC1 promoter is cloned in front of the luciferase reporter gene, therefore NPC promoter activation results in luciferase expression. Frozen stock of the NPC1 promoter transfected Huh7 cells were obtained from the laboratory of Dr. Yiannis Ioannou (The Mount Sinai School of Medicine, New York, NY). Cells were propagated and maintained at NCGC in medium containing RPMI-1640 supplemented with 10% FBS, 2mM L-glutamine, and 50ug/ml penicillin/streptomycin. Cells were harvested in and plated for assays in OP-MEM I reduced-serum medium supplemented with 10% FBS. The Amplite luciferase reporter gene assay kit was purchased from ABD Bioquest and prepared/stored according to manufacturers recommendations. qHTS Assay Setup: 1.#Dispensed 5ul of Huh7 cells stably expressing NPC1-luciferase at a density of 1500 cells per well 1536-well plates. 2.#Incubate cells at 37C, 5% CO2, and 95% humidity for 2 hours. 3.#Transferred 23nl per well of compound in DMSO solution. 4.#Incubated at 37C, 5% CO2, and 95% humidity for 24 hours. 5.#Dispensed 3ul per well of Amplite reagent(ABD Bioquest) per well. 6.#Incubate at ambient for 10 minutes. 7.#Read using the luminescence protocol on the ViewLux plate reader (Perkin Elmer).
Potency means the concentration at half of the fitted maximal effect; tags describe the fitted curve by direction and shape.

| SMILES | Potency |
| --- | --- |
| CCOC(=O)c1cc2cc(OC)ccc2[nH]1 | active: 3.55 µM |
| COc1cccc(OCc2cc(C(=O)N3CCCC3c3ccccn3)no2)c1 (centres undefined) | active: 2.24 µM |
| Cc1cccc(S(=O)(=O)Nc2nc3ccccc3nc2Nc2ccc3c(c2)OCO3)c1 | inactive |
| COc1ccc(C(=O)NNC(=O)Nc2ccc(Cl)cc2)cc1 | inconclusive [activator, partial curve] |
| Cc1ccc(-c2noc(CSc3nc(N)cc(N)n3)n2)cc1 | active: 2.82 µM |
| O=C(CSc1nc2cc(C(=O)O)ccc2c(=O)n1-c1ccc(F)cc1)Nc1ccc(F)c(F)c1F | inconclusive [activator, single point] |
| CC(/C=N/Nc1nnc(C)c(=O)[nH]1)=C\c1ccccc1 | inconclusive [activator, partial curve] |
| CCCC(=O)N1CCN(c2nc3ccccc3s2)CC1 | active: 1.41 µM |
| O=C1CN(S(=O)(=O)c2cccc(C(=O)O)c2)c2ccccc2N1 | inactive |
| Cc1nc(N)nc(N/N=C/c2c(F)cccc2Cl)n1 | inactive |
| Cc1cccc(-c2cnn(-c3ccccc3)c2N)c1 | inconclusive [activator, partial curve] |
| COC(=O)C(C)NC(=O)C1CCCN1C(=O)CNC(=O)OCc1ccccc1 (centres undefined) | inactive |
| CCC(C)(C)C1CCC2(CC1)NC(=S)N(c1ccccc1)N2 (centres undefined) | inactive |
| O=C(NCc1ccccn1)Nc1ccc(Cl)cc1Cl | active: 3.16 µM |
| COc1ccc(NC(=O)c2ccc(Br)o2)c([N+](=O)[O-])c1 | inconclusive [activator, partial curve] |
| O=C(NNC(=S)Nc1ccc(Cl)cc1)c1ccccc1 | inconclusive [activator, partial curve] |
| COc1ccccc1NC(=O)Nc1ccc(CC#N)cc1 | inconclusive [activator, single point] |
| N#Cc1ccsc1NC(=O)COC(=O)c1cc2ccccc2cc1O | inactive |
| Nc1c(C(=O)c2cccs2)oc2ccccc12 | inconclusive [activator, partial curve] |
| O=C(Nc1ccc(OC(F)(F)F)cc1)c1cnccn1 | active: 1.78 µM |
| Fc1ccc(NC(=S)N/N=C/c2ccc(F)c(F)c2)c(F)c1 | inconclusive [activator, partial curve] |
| COc1ccc(-c2cc3c(=O)n(CC(=O)NCCCN4CCC(Cc5ccccc5)CC4)ncn3n2)cc1 | inconclusive [activator, partial curve] |
| Cc1cccc(N(C(=O)c2snc(C(N)=O)c2N)C(C(=O)NCC2CCCO2)c2ccc(N(C)C)cc2)c1C (centres undefined) | inactive |
| CCn1c2ccc(F)cc2c2nnc(SCCN3CCOCC3)nc21 | inactive |
| Cc1cccc(-n2c(C)cc(C=C3C(=O)c4ccccc4C3=O)c2C)c1 | inconclusive [activator, single point] |
| CCN(CC)C(=O)CSc1ncnc2c1cnn2-c1ccccc1 | inconclusive [activator, partial curve] |
| Cc1ccc(/C=C(\C#N)C(=O)Nc2ccccn2)o1 | inconclusive [activator, single point] |

| SMILES | Potency |
| --- | --- |
| O=C(NC1CC1)C1CCN(c2nc3ccccc3s2)CC1 | inconclusive [activator, partial curve] |
| COc1ccc(C(=O)C(OC(=O)c2ccccc2)c2ccccc2)cc1 (centres undefined) | inconclusive [activator, single point] |
| COc1ccc(S(=O)(=O)N2CCOCC2)cc1NC(=O)CSc1nnc(N)s1 | inactive |
| Nc1ccccc1C(=O)/C=C/c1ccc2c(c1)OCO2 | active: 3.16 µM |
| O=C(Nc1ccc(F)c(F)c1)c1ccc2c(c1)OCO2 | active: 2.51 µM |
| CCOC(=O)c1c(C)[nH]c(C(=O)OCCOc2ccccc2C)c1C | active: 3.98 µM |
| CC(/C=N/N1CCN(c2ccccc2)CC1)=C\c1ccccc1 | inconclusive [activator, single point] |
| Cc1cc(C(=O)COC(=O)C23CC4CC(CC(O)(C4)C2)C3)c(C)n1-c1c(C)n(C)n(-c2ccccc2)c1=O | inactive |
| COc1ccc(/C=C/C(=O)c2ccc(NC(=O)c3cccs3)cc2)cc1OC | inconclusive [activator, partial curve] |
| Cc1cccn2cc(-c3ccc(F)cc3)nc12 | active: 1.12 µM |
| Cc1cccc(/C=N/Nc2ccc3ccccc3n2)c1 | inconclusive [activator, partial curve] |
| N#Cc1ccccc1NC(=O)c1ccc2c(c1)OCCO2 | inconclusive [activator, partial curve] |
| Cc1ccc2nc(-c3cccnc3)cc(C(=O)N3CCN(c4ccc([N+](=O)[O-])cc4)CC3)c2c1 | inactive |
| O=C(Nc1ccc2ccccc2c1)c1ccccc1F | active: 0.501 µM |
| O=C(N/N=C/c1cccc(F)c1)NC1CCCCC1 | inactive |
| C/C(=N\Nc1cc(Cl)nc(C)n1)c1ccccc1 | inconclusive [activator, single point] |
| O=[N+]([O-])c1ccc(-c2nc(-c3ccncc3)no2)cc1 | inconclusive [activator, partial curve] |
| CCCCNC(=O)N(C)c1nc2ccccc2s1 | inconclusive [activator, partial curve] |
| COC(=O)Cn1c(O)c(N=NC(=O)c2ccc3c(c2)OCO3)c2ccccc21 | inconclusive [activator, single point] |
| O=C(CC1CCCCC1)NCc1ccccc1 | inconclusive [activator, partial curve] |
| COc1ccc(OCCCC(=O)Nc2cc([N+](=O)[O-])ccc2C)cc1 | inconclusive [activator, single point] |
| O=C(Nc1ccc(NC(=O)C2CC2)cc1)c1ccco1 | active: 3.16 µM |
| COc1ccc(NC(=O)CCOc2ccccc2)cc1 | active: 3.16 µM |
| CCCCCOc1ccc(CN2CCOCC2)cc1Cl | active: 3.16 µM |
| Oc1[nH]c2ccccc2c1N=Nc1ccc(C(F)(F)F)cn1 | inconclusive [activator, partial curve] |
| c1cnc(SCCCOc2ccc3ccccc3c2)nc1 | inconclusive [activator, single point] |
| COc1cc(NC(=O)c2ccccc2Cl)c(OC)cc1NC(=O)CN1CCCCC1 | inactive |

| SMILES | Potency |
| --- | --- |
| O=C(c1cc(COc2c(F)cccc2F)on1)N1CCSCC1 | inconclusive [activator, partial curve] |
| O=c1oc(CCCO)cc2ccc(C#Cc3ccsc3)cc12 | inconclusive [activator, single point] |
| O=C(c1ccccc1)n1ccc(-c2cnc(-c3ccccc3)s2)n1 | active: 1.41 µM |
| CCOC(=O)N1CCN(C(=O)/C=C/c2ccc(OC)cc2)CC1 | inactive |
| CC1CCCCN1C(=S)NCCc1ccccc1 (centres undefined) | inconclusive [activator, partial curve, poor fit] |
| Cc1cc(C(=O)CN2C(=O)c3ccccc3C2=O)c(C)n1Cc1cccs1 | active: 0.501 µM |
| CCOC(=O)c1sc(Nc2nc3c(OC)cccc3s2)cc1C | inconclusive [activator, single point] |
| Nc1c(C(=O)N2CCOCC2)sc2nc3c(cc12)CCC3 | active: 1.26 µM |
| COc1ccc2[nH]c3c(NCc4ccco4)ncnc3c2c1 | inconclusive [activator, single point] |
| Cc1cc(N2CCN(C(=O)c3ccco3)CC2)n2ncc(-c3ccccc3)c2n1 | inconclusive [activator, partial curve] |
| C=CCn1c(SCC(=O)NCCOC)nc2scc(-c3ccco3)c2c1=O | inconclusive [activator, single point] |
| Cc1ccc(-c2nc(Nc3ccccc3)n[nH]2)cc1 | active: 0.891 µM |
| N#C/C(=C\c1ccc(O)c(O)c1)C(=O)Nc1ccccc1 | inactive |
| CCOC(=O)c1cc2cc3ccccc3cc2[nH]1 | active: 2.24 µM |
| COC(=O)c1ccc(COc2ccccc2/C=N/Nc2cccc(C(=O)O)c2)cc1 | inconclusive [activator, single point] |
| COc1ccc2c(c1OC)C(=O)OC2Nc1nc(-c2cc3cc([N+](=O)[O-])ccc3oc2=O)cs1 (centres undefined) | inactive |
| Cc1ccc(CSc2nnc(SCC(=O)N/N=C/c3ccccc3OCC(=O)O)s2)cc1 | inactive |
| Nn1c(SCc2ccccc2)nc2c(cnn2-c2ccccc2)c1=O | inconclusive [activator, partial curve] |
| O=C(CNC(=O)c1cccs1)c1ccc(Cl)cc1 | active: 1.12 µM |
| O=C(CSc1ccc2nc(-c3ccccc3)cn2n1)NCC1CCCO1 (centres undefined) | inconclusive [activator, single point] |
| COc1cccc2oc3ccc(C#CC4(N)CCCCC4)cc3c(=O)c12 | inconclusive [activator, single point] |
| COc1ccc(NC(=O)c2cnn(-c3ccccc3)c2C)cc1 | active: 2.51 µM |
| Clc1c(-c2ccccc2)nnn1-c1ccccc1 | active: 2.24 µM |
| COC(=O)N/N=C/c1cccc(OCCSc2ccc(Cl)cc2)c1 | inconclusive [activator, single point] |
| COc1cccc(NC(=S)NN2CCN(C)CC2)c1 | inconclusive [activator, partial curve] |
